Results on 16 test systems are retold here after the supplement of paper PMC10724272.

Experiment in all cases: CLSI broth microdilution.
Compound in one assay: CCCCCOc1ccc(-c2ccc(-c3ccc(C(=O)N[C@H]4C[C@@H](O)[C@@H](O)NC(=O)[C@@H]5[C@@H](O)[C@@H](C)CN5C(=O)[C@H]([C@@H](C)O)NC(=O)[C@H]([C@H](O)[C@@H](O)c5ccc(O)cc5)NC(=O)[C@@H]5C[C@@H](O)CN5C(=O)[C@H]([C@@H](C)O)NC4=O)cc3)cc2)cc1 [anidulafungin]
Compound in the next assay: CC[C@@H]([C@H](C)O)n1ncn(-c2ccc(N3CCN(c4ccc(OC[C@@H]5CO[C@@](Cn6cncn6)(c6ccc(F)cc6F)C5)cc4)CC3)cc2)c1=O [posaconazole]
Compound in the next assay: OC(Cn1cncn1)(Cn1cncn1)c1ccc(F)cc1F [fluconazole]
Compound in a further assay: C[C@@H]1[C@H](O)[C@@H](C)/C=C/C=C/C=C/C=C/C=C/C=C/C=C/[C@H](O[C@@H]2O[C@H](C)[C@@H](O)[C@H](N)[C@@H]2O)C[C@@H]2O[C@](O)(C[C@@H](O)C[C@@H](O)[C@H](O)CC[C@@H](O)C[C@@H](O)CC(=O)O[C@H]1C)C[C@H](O)[C@H]2C(=O)O [amphotericin B]
Compound in a further assay: CCC(C)n1ncn(-c2ccc(N3CCN(c4ccc(OCC5COC(Cn6cncn6)(c6ccc(Cl)cc6Cl)O5)cc4)CC3)cc2)c1=O [itraconazole]
Compound in a further assay: Nc1[nH]c(=O)ncc1F [flucytosine]
Compound in a further assay: CC[C@H](C)C[C@H](C)CCCCCCCCC(=O)N[C@H]1C[C@@H](O)[C@@H](NCCN)NC(=O)[C@@H]2[C@@H](O)CCN2C(=O)[C@H]([C@H](O)CCN)NC(=O)[C@H]([C@H](O)[C@@H](O)c2ccc(O)cc2)NC(=O)[C@@H]2C[C@@H](O)CN2C(=O)[C@H]([C@@H](C)O)NC1=O [caspofungin]
Compound in the next assay: CCCCCOc1ccc(-c2cc(-c3ccc(C(=O)N[C@H]4C[C@@H](O)[C@@H](O)NC(=O)[C@@H]5[C@@H](O)[C@@H](C)CN5C(=O)[C@H]([C@H](O)CC(N)=O)NC(=O)[C@H]([C@H](O)[C@@H](O)c5ccc(O)c(OS(=O)(=O)O)c5)NC(=O)[C@@H]5C[C@@H](O)CN5C(=O)[C@H]([C@@H](C)O)NC4=O)cc3)no2)cc1 [micafungin]
Compound in the next assay: C[C@@H](c1ncncc1F)[C@](O)(Cn1cncn1)c1ccc(F)cc1F [voriconazole]

MIC of invasive clinical C. tropicalis isolates, CLSI broth microdilution (fluconazole 0.12-256 mg/L, up to 1,024 for the azole-resistant cluster and its neighbour group; other ranges not stated); higher = less susceptible. Call: susceptible or wild type [S] / resistant or non-wild type [R] by CLSI breakpoints or cut-offs; intermediate and dose-dependent carry no call. '<=' and '>=' at the end values are inferred; the source marks only some of them. Isolates are numbered anew.

For the test system “Candida tropicalis isolate 349 (ERG11 copies: 7, Erg11p: Y132F, S154F (heterozygous))”, the MIC with anidulafungin is 0.06 mg/L [S]; in the assay with posaconazole, 1 mg/L [R]; with fluconazole it was 512 mg/L [R]; with amphotericin B it was 2 mg/L [S]; in the assay with itraconazole, 1 mg/L [R]; with flucytosine, at most 0.06 mg/L [S]. Besides, the MIC was 0.06 mg/L [S] with caspofungin, 0.03 mg/L [S] with micafungin and at least 8 mg/L [R] with voriconazole.
In the case of “Candida tropicalis isolate 131 (ERG11 copies: 2, Erg11p: no key change)”, the MIC with anidulafungin is 0.03 mg/L [S]; with posaconazole it was 0.25 mg/L [S]; in the assay with fluconazole, 1 mg/L [S]; with amphotericin B it was 0.5 mg/L [S]; with itraconazole it was 0.25 mg/L [S]; with flucytosine it was at most 0.06 mg/L [S]. Also, the MIC is 0.03 mg/L [S] with caspofungin, 0.03 mg/L [S] with micafungin and 0.06 mg/L [S] with voriconazole.
In the case of “Candida tropicalis isolate 245 (ERG11 copies: 2, Erg11p: no key change)”, the MIC was at most 0.015 mg/L [S] with anidulafungin; 0.03 mg/L [S] in the assay with posaconazole; 0.5 mg/L [S] with fluconazole; 0.5 mg/L [S] with amphotericin B; 0.06 mg/L [S] in the assay with itraconazole; at most 0.06 mg/L [S] in the assay with flucytosine. Further, the MIC was 0.03 mg/L [S] with caspofungin, 0.015 mg/L [S] with micafungin and at most 0.008 mg/L [S] in the assay with voriconazole.
Take “Candida tropicalis isolate 274 (ERG11 copies: 2, Erg11p: no key change)”: the MIC is 0.12 mg/L [S] with anidulafungin; 0.25 mg/L [S] with posaconazole; 2 mg/L [S] with fluconazole; 1 mg/L [S] with amphotericin B; 0.25 mg/L [S] in the assay with itraconazole; at most 0.06 mg/L [S] with flucytosine. In addition, the results for the minimum inhibitory concentration (MIC) with caspofungin, with micafungin and with voriconazole were 0.03 mg/L [S], 0.06 mg/L [S] and 0.25 µg/mL, respectively.
With “Candida tropicalis isolate 361 (ERG11 copies: 2, Erg11p: no key change)”, the MIC is 0.03 mg/L [S] in the assay with anidulafungin; 0.06 mg/L [S] with posaconazole; 1 mg/L [S] with fluconazole; 0.5 mg/L [S] with amphotericin B; 0.06 mg/L [S] with itraconazole; at most 0.06 mg/L [S] with flucytosine. The MIC in the assay with caspofungin, with micafungin and with voriconazole was 0.03 mg/L [S] throughout.
Take “Candida tropicalis isolate 171 (ERG11 copies: 2, Erg11p: no key change)”: the minimum inhibitory concentration (MIC) is at most 0.015 mg/L [S] with anidulafungin; 0.12 mg/L [S] with posaconazole; 1 mg/L [S] with fluconazole; 1 mg/L [S] in the assay with amphotericin B; 0.12 mg/L [S] in the assay with itraconazole; at most 0.06 mg/L [S] in the assay with flucytosine. Besides, the MIC with caspofungin amounted to 0.03 mg/L [S]; in the assay with micafungin, 0.008 mg/L [S]; with voriconazole it was 0.03 mg/L [S].
In the case of “Candida tropicalis isolate 382 (ERG11 copies: 2, Erg11p: no key change)”, the minimum inhibitory concentration (MIC) in the assay with anidulafungin was at most 0.015 mg/L [S]; in the assay with posaconazole it was 0.25 mg/L [S]; with fluconazole it was 2 mg/L [S]; in the assay with amphotericin B it was 0.5 mg/L [S]; in the assay with itraconazole it was 0.25 mg/L [S]; with flucytosine, at most 0.06 mg/L [S]. The MIC amounted to 0.03 mg/L [S] with caspofungin, 0.03 mg/L [S] with micafungin and 0.12 mg/L [S] with voriconazole.
As to “Candida tropicalis isolate 13 (ERG11 copies: 2, Erg11p: no key change)”, the MIC with anidulafungin stood at 0.12 mg/L [S]; in the assay with posaconazole, 0.5 mg/L [R]; with fluconazole, 2 mg/L [S]; in the assay with amphotericin B, 0.5 mg/L [S]; with itraconazole it was 0.25 mg/L [S]; with flucytosine, 0.12 mg/L [S]. Moreover, the MIC was found to be 0.06 mg/L [S] in the assay with caspofungin, 0.06 mg/L [S] in the assay with micafungin and 0.25 µg/mL with voriconazole.
Take “Candida tropicalis isolate 375 (ERG11 copies: 2, Erg11p: no key change)”: the MIC was 0.03 mg/L [S] in the assay with anidulafungin; 0.06 mg/L [S] with posaconazole; 1 mg/L [S] with fluconazole; 0.5 mg/L [S] with amphotericin B; 0.06 mg/L [S] with itraconazole; at most 0.06 mg/L [S] with flucytosine. In addition, the MIC with caspofungin, with micafungin and with voriconazole was 0.03 mg/L [S] throughout.
Take “Candida tropicalis isolate 150 (ERG11 copies: 16, Erg11p: Y132F, S154F (heterozygous))”: the MIC in the assay with anidulafungin was 0.25 mg/L [S]; with posaconazole, 1 mg/L [R]; in the assay with fluconazole, 512 mg/L [R]; in the assay with amphotericin B, 1 mg/L [S]; in the assay with itraconazole, 1 mg/L [R]; with flucytosine, at most 0.06 mg/L [S]. The results for the MIC with caspofungin, with micafungin and in the assay with voriconazole were 0.06 mg/L [S], 0.06 mg/L [S] and at least 8 mg/L [R], respectively.
“Candida tropicalis isolate 294 (ERG11 copies: 2, Erg11p: no key change)”: the MIC in the assay with anidulafungin stood at 0.12 mg/L [S]; with posaconazole, 0.25 mg/L [S]; with fluconazole, 1 mg/L [S]; with amphotericin B, 0.5 mg/L [S]; with itraconazole, 0.25 mg/L [S]; in the assay with flucytosine it was 0.25 mg/L [S]. Also, the MIC in the assay with caspofungin stood at 0.03 mg/L [S]; with micafungin it was 0.03 mg/L [S]; in the assay with voriconazole it was 0.12 mg/L [S].
For “Candida tropicalis isolate 84 (ERG11 copies: 12, Erg11p: Y132F, S154F (homozygous))”, the MIC in the assay with anidulafungin is 0.25 mg/L [S]; in the assay with posaconazole, 1 mg/L [R]; with fluconazole, 512 mg/L [R]; in the assay with amphotericin B it was 0.5 mg/L [S]; with itraconazole it was 1 mg/L [R]; in the assay with flucytosine, at most 0.06 mg/L [S]. The MIC with caspofungin is 0.06 mg/L [S]; with micafungin, 0.06 mg/L [S]; with voriconazole, at least 8 mg/L [R].
Take “Candida tropicalis isolate 419 (ERG11 copies: 2, Erg11p: no key change)”: the MIC in the assay with anidulafungin is 0.06 mg/L [S]; with posaconazole, 0.25 mg/L [S]; in the assay with fluconazole it was 2 mg/L [S]; in the assay with amphotericin B it was 0.5 mg/L [S]; with itraconazole, 0.25 mg/L [S]; with flucytosine, at most 0.06 mg/L [S]. Also, the minimum inhibitory concentration (MIC) worked out at 0.03 mg/L [S] in the assay with caspofungin, 0.03 mg/L [S] in the assay with micafungin and 0.06 mg/L [S] with voriconazole.
Take “Candida tropicalis isolate 248 (ERG11 copies: 2, Erg11p: no key change)”: the minimum inhibitory concentration (MIC) in the assay with anidulafungin is 0.5 µg/mL; with posaconazole it was 0.5 mg/L [R]; in the assay with fluconazole, 4 µg/mL; with amphotericin B, 2 mg/L [S]; with itraconazole it was 0.5 mg/L [S]; in the assay with flucytosine, 0.12 mg/L [S]. The MIC was found to be 0.25 mg/L [S] with caspofungin, 0.06 mg/L [S] in the assay with micafungin and 0.5 µg/mL with voriconazole.
Regarding “Candida tropicalis isolate 309 (ERG11 copies: 2, Erg11p: no key change)”, the MIC with anidulafungin amounted to 0.06 mg/L [S]; in the assay with posaconazole, 0.03 mg/L [S]; with fluconazole, 0.25 mg/L [S]; with amphotericin B, 0.25 mg/L [S]; with itraconazole, 0.06 mg/L [S]; with flucytosine it was 0.12 mg/L [S]. In addition, the MIC in the assay with caspofungin is 0.06 mg/L [S]; in the assay with micafungin, 0.015 mg/L [S]; in the assay with voriconazole, at most 0.008 mg/L [S].
In the case of “Candida tropicalis isolate 85 (ERG11 copies: 2, Erg11p: no key change)”, the MIC is 0.03 mg/L [S] with anidulafungin; 0.5 mg/L [R] with posaconazole; 4 µg/mL with fluconazole; 1 mg/L [S] with amphotericin B; 0.5 mg/L [S] in the assay with itraconazole; at most 0.06 mg/L [S] in the assay with flucytosine. Moreover, the figures for the MIC with caspofungin, with micafungin and with voriconazole were 0.03 mg/L [S], 0.03 mg/L [S] and 0.5 µg/mL, respectively.
